According to PubChem BioAssay AID624296 (National Center for Advancing Translational Sciences (NCATS), 2012):
About 9,900 (2.8%) of roughly 350,000 compounds were called active. The shares of active, inactive and inconclusive entries below differ from those in the screen. The call rests on the fitted dose curve; in most records, active means well fitted activation curve with a large enough effect; inconclusive means small, poorly fitted or top-dose-only effect; inactive means no such curve, though single readings can be large or run the other way. No potency is given beside an inconclusive call; the fits are too rough.

experiment: A quantitative high throughput screen for small molecules that induce DNA re-replication in MCF 10a normal breast cells.; further: nearly all actives have a fitted effect of over 50% in size; on activity, positive = re-replication: % of control where 0% means no effect; details: MCF 10A DNA re-replication, Hoechst nuclear intensity, 48 h; activity, positive = re-replication: at 46.1 µM (top of the series)
Potency means the concentration at half of the fitted maximal effect; tags describe the fitted curve by direction and shape.

Row | SMILES | Potency | activity, positive = re-replication
1 | Cc1ccc(CNCC(O)(c2ccc(F)cc2)c2ccc(F)cc2)cc1 | inconclusive [activator, single point] | –
2 | Cc1c(C(=O)N(C)C)c2ccc(Cl)cc2n1O | inactive | –
3 | COc1ccc(/C=C/C(=O)c2cc3c(cc2N)OCO3)cc1 | inconclusive [activator, single point] | –
4 | CC1CCC(C(C)C)C(OP(=O)(c2ccc(N(C)C)cc2)C(O)c2cccnc2)C1 (stereo unspecified) | – | inconclusive: 106% [activator]
5 | CN1CCN(Cc2cccc(Oc3ccc(Cl)cc3)c2)CC1 | inactive | –
6 | Cc1ccc(C)c(N2N=C(C(=O)Nc3cccnc3)CCC2=O)c1 | inactive | –
7 | Oc1cc(-c2cccnc2)cc2cccnc12 | active: 10.3 µM | –
8 | O=[N+]([O-])c1ccc(N2CCCCC2)cc1 | inconclusive [activator, single point] | –
9 | CCN(c1cccc(C)c1)S(=O)(=O)c1cnc[nH]1 | active: 20.6 µM | –
10 | Cc1nn(C)c(=O)c(N)c1-c1cc(-c2ccc(Cl)c(Cl)c2)n[nH]1 | inconclusive [activator, single point] | –
11 | COc1cc(CCc2ccccc2)c(C(=O)O)c(O)c1CC=C(C)C | inconclusive [activator, single point] | –
12 | Cc1cccc(Nc2nc3c(S(=O)(=O)c4ccccc4)nnn3c3ccccc23)c1C | inconclusive [activator, partial curve, poor fit] | –
13 | CC(C)CCNC(=O)Cc1csc(-c2ccccc2)n1 | inconclusive [activator, partial curve, poor fit] | –
14 | O=c1[nH]c(COc2ccc(Br)cc2Cl)nc2ccccc12 | inconclusive [activator, partial curve, poor fit] | –
15 | O=C(Cn1cnc([N+](=O)[O-])n1)NCCc1ccccc1 | inconclusive [activator, single point] | –
16 | COc1ccc(S(=O)(=O)Nc2ccc(O)c3ccccc23)cc1 | inconclusive [activator, single point] | –
17 | CCOc1ccc2nc(C)cc(Nc3cccc([N+](=O)[O-])c3)c2c1 | active: 18.4 µM | –
18 | COC(=O)c1c(NC(=O)C2COc3ccccc3O2)sc2c1CCN(Cc1ccccc1)C2 (stereo unspecified) | inactive | –
19 | COCCOC(=O)/C(=C\c1cc(C(C)(C)C)c(O)c(C(C)(C)C)c1)C(C)=O | active: 3.26 µM | –
20 | CCOC(=O)c1[nH]c2cc(OC)c(OC)cc2c1NC(=O)c1nonc1C | inconclusive [activator, partial curve, poor fit] | –
21 | CCCCS(=O)(=O)N1CCCC(C(=O)Oc2ccccc2OC)C1 (stereo unspecified) | inconclusive [activator, single point] | –
22 | c1ccc(-n2nnnc2NC2CCCCCC2)cc1 | inconclusive [activator, full curve, poor fit] | –
23 | O=C(Nc1ccc2nc3n(c(=O)c2c1)CCCCC3)c1c(F)ccc([N+](=O)[O-])c1F | inconclusive [activator, full curve, poor fit] | –
24 | CN(C)c1ccc(NC(=O)c2cccc([N+](=O)[O-])c2)c2ccccc12 | inactive | –

Row | SMILES | Potency | activity, positive = re-replication
25 | CCN1CCN(C(=O)c2ccc(Cl)c(S(=O)(=O)N3CCOCC3)c2)CC1 | inactive | –
26 | Oc1ccc(-c2n[nH]c(=S)n2-c2ccc3c(c2)OCCO3)cc1 | inconclusive [activator, single point] | –
27 | COc1ccc(C2c3c(ncn(CCCN4CCOCC4)c3=N)Oc3ccc4ccccc4c32)cc1OC (stereo unspecified) | inactive | –
28 | CC(C)(C)c1ccc(S(=O)(=O)n2c(CN3CCOCC3)nc3ccccc32)cc1 | inactive | –
29 | O=S(=O)(Nc1cccc(Oc2ccc(Cl)cc2)n1)c1ccc(F)cc1 | inconclusive [activator, single point] | –
30 | CC(C)(C)NCC(O)COc1cccc2c1CC(O)C(O)C2 (stereo unspecified) | inactive | –
31 | O=C(NC(Cc1ccc(O)cc1)C(=O)N=Nc1c(O)[nH]c2ccccc12)c1ccccc1 (stereo unspecified) | inactive | –
32 | CCOC(=O)c1c(NC(=O)CCN2CCOCC2)sc2c1CC(C)(C)OC2 | inconclusive [activator, single point] | –
33 | NS(=O)(=O)c1ccc(CCNc2nc(CN3CCCCC3)nc3sc4c(c23)CCC4)cc1 | inconclusive [activator, partial curve, poor fit] | –
34 | COc1ccc(NC2CCCN(C(=O)c3c(C)noc3C)C2)cc1 (stereo unspecified) | inactive | –
35 | O=C(/C=C/c1c(Cl)cccc1Cl)NCCCn1ccnc1 | active: 23.1 µM | –
36 | CN(Cc1ccc(C(C)(C)C)cc1)C(=O)Cc1ccc(S(=O)(=O)N2CCOCC2)s1 | inconclusive [activator, partial curve, poor fit] | –
37 | Oc1ccc(Br)cc1-c1nc2cnccn2c1NC1CCCC1 | inconclusive [activator, single point] | –
38 | COc1ccc(S(=O)(=O)N2CCCCCC2)cc1NC(C)C(=O)Nc1ccc(NC(C)=O)cc1 (stereo unspecified) | inactive | –
39 | COc1cc(/C=C2\SC(N3CCc4ccccc4C3)=NC2=O)cc(OC)c1OC | inconclusive [activator, partial curve, poor fit] | –
40 | Cc1ccc(C)c(OCCn2cc(/C=C(\C#N)C(=O)NCC3CCCO3)c3ccccc32)c1 (stereo unspecified) | active: 16.4 µM | –
41 | O=C(Nc1nc2ccccc2s1)C1CC(=O)N(c2ccc(Cl)cc2)C1 (stereo unspecified) | inconclusive [activator, single point] | –
42 | CCCS(=O)(=O)c1nnnn1-c1cccc(OC)c1 | active: 6.51 µM | –
43 | CCOC(=O)N1CCN(S(=O)(=O)N2CCCC(C(=O)NCCc3ccc(C)cc3)C2)CC1 (stereo unspecified) | inactive | –
44 | COc1ccc2[nH]c3nc(SCc4nnc(-c5ccc(C)cc5)o4)nnc3c2c1 | inconclusive [activator, full curve, poor fit] | –
45 | O=C(/C=C/c1ccco1)N1CCN(C/C=C/c2ccccc2)CC1 | inconclusive [activator, single point] | –
46 | CCOC(=O)c1[nH]c(C)c(C(=O)c2cc(F)ccc2F)c1C | active: 1.16 µM | –
47 | C[C@H](CO)N1C[C@H](C)[C@H](CN(C)S(=O)(=O)c2cn(C)cn2)Oc2ccc(NC(=O)Nc3ccc(C(F)(F)F)cc3)cc2CC1=O | inconclusive [activator, single point] | –
48 | COc1ccc(-c2nc3cccc(C)n3c2NCC2CCCO2)cc1O (stereo unspecified) | inactive | –

Row | SMILES | Potency | activity, positive = re-replication
49 | O=C(NC1CCCCC1)C(c1ccc(F)cc1)N(C(=O)c1csnn1)C1CCCC1 (stereo unspecified) | inactive | –
50 | CC(NS(=O)(=O)c1ccccc1)C(c1cccs1)N1CCN(c2ccccc2)CC1 (stereo unspecified) | inconclusive [activator, single point] | –
51 | COC(=O)c1ccccc1NC(=O)COC(=O)CO/N=C(\C)c1ccc2c(c1)OCO2 | inconclusive [activator, partial curve, poor fit] | –
52 | CCCNC1=C(N(C(C)=O)c2cccc(F)c2)C(=O)c2ccccc2C1=O | active: 0.731 µM | –
53 | O=C(c1cc(C2CC2)nn1-c1ccccc1)N1CCN(Cc2ccccc2F)CC1 | inconclusive [activator, single point] | –
54 | CC[n+]1c(-c2ccccc2)csc1Nc1c(C)n(C)n(-c2ccccc2)c1=O | inactive | –
55 | Cc1ccc(N=c2ssnc2Cl)cc1 | inconclusive [activator, single point] | –
56 | CC1CCc2sc(C(=O)Nc3ccc(N4CCOCC4)cc3)cc2C1 (stereo unspecified) | inconclusive [activator, single point] | –
57 | Cc1snc(S(=O)(=O)/C(C#N)=N/Nc2ccc(C(F)(F)F)cc2)c1C#N | inconclusive [activator, single point] | –
58 | O=C(O)c1ccc(COc2ccccc2[N+](=O)[O-])o1 | inactive | –
59 | CC(=O)Nc1ccc(S(=O)(=O)N2CCN(C(=O)c3ncoc3-c3cccc(F)c3)CC2)cc1 | inactive | –
60 | Cc1cn(CC(=O)NCc2ccc3c(c2)OCO3)c(=O)[nH]c1=O | inactive | –
61 | C[C@]12c3[nH]c4cc(-c5ccco5)ccc4c3CCN1C(=O)[C@@H](CC(=O)NCCC1=CCCCC1)C[C@@H]2C(=O)N1CCCCC1 | inconclusive [activator, full curve] | –
62 | COc1ccc(-n2c(=O)c3ccccc3n(CC(=O)NC3CCCCC3)c2=O)cc1OC | inconclusive [activator, single point] | –
63 | COc1ccc(C(=O)Nc2cc(-c3ccc(C)cc3)no2)cc1 | inconclusive [activator, single point] | –
64 | Cc1ccc(S(=O)(=O)C2(C(=O)NCCc3ccccc3)CC2)cc1 | inactive | –
65 | O=C(O)c1c[nH]c2ccc([N+](=O)[O-])cc2c1=O | inactive | –
66 | CCCCN(C)CCNC(=O)CN1C(=O)CSc2ccc(S(=O)(=O)N3CCCCC3)cc21 | inconclusive [activator, full curve, poor fit] | –
67 | COc1ccccc1-c1nnc(NC(=O)c2ccc(S(=O)(=O)N3CCCC3)cc2)o1 | inactive | –
68 | Cc1nn2c(Nc3ccccc3)c3c(nc2c1-c1ccccc1)CCC3 | inconclusive [activator, partial curve, poor fit] | –
69 | Cc1nc2c(O)c3c(c(O)c2nc1C)C1C=CC3CC1 | active: 5.17 µM | –
70 | COc1ccc(-c2sc3ccc(N4CCOCC4)cc3c2C#Cc2ccsc2)cc1 | inconclusive [activator, partial curve, poor fit] | –
71 | CCOC(=O)c1ccccc1NC(=O)C1CC(=O)N(C2CCCC2)C1 (stereo unspecified) | inactive | –
